Measurements taken from PMC10668032.
The list shows a part of the results. At the low end of the ranking the order means little.

Each sequence was assayed against SIX1-Q177R homeodomain (UniProt Q15475) (assay: universal protein binding microarray). Conditions: Universal all-10-mer PBM (8x60K, AMADID 030236), 300 nM GST-tagged protein, Alexa Fluor 488 anti-GST; buffer, salt, pH and temperature not stated; high values mean tight binding; most listed sequences are background and not binding sites; double strand, one strand shown.

| Sequence | binding signal |
| --- | --- |
| GAGTATAA | -0.0834 E-score |
| GCTCAAGA | -0.24 E-score |
| GGAGTCAA | 0.2 E-score |
| GGGTTATA | 0.23 E-score |
| GGGCGCAA | -0.0493 E-score |
| ATTAACTA | -0.0769 E-score |
| ACACACGT | 0.27 E-score |
| CTAAATGC | -0.112 E-score |
| CCGGATAA | 0.132 E-score |
| AGTCGGTC | -0.162 E-score |
| CATGGAGA | 0.0319 E-score |
| CATTACAG | 0.039 E-score |
| CGAGACTA | -0.00551 E-score |
| AGTTTAGA | -0.0508 E-score |
| GCTACAAC | -0.168 E-score |
| GCCTGTAA | -0.021 E-score |
| ACCGCTGC | 0.0752 E-score |
| CTGAAACC | 0.0356 E-score |
| CGCCGTCC | -0.206 E-score |
| ATACCGAG | -0.0446 E-score |
| TCGATACA | 0.198 E-score |
| CCATTAGG | -0.0946 E-score |
| GAGAATCA | -0.203 E-score |
| CGTGCCAC | -0.0208 E-score |
| GACTTGGC | -0.271 E-score |

| Sequence | binding signal |
| --- | --- |
| AAGAGCTC | -0.185 E-score |
| TCAAGAGA | -0.179 E-score |
| AAATGTGG | -0.107 E-score |
| CAGTAAAG | -0.195 E-score |
| CTTGATTA | -0.067 E-score |
| ATCTTTAA | -0.19 E-score |
| AGTACTAT | -0.0407 E-score |
| CTACTACC | 0.0639 E-score |
| CGCGAACA | 0.143 E-score |
| CCCCGAGG | 0.213 E-score |
| AGCACCCG | 0.262 E-score |
| AGTTATAA | -0.0227 E-score |
| CAGCTCGA | -0.197 E-score |
| CAATACAC | 0.371 E-score |
| ACGCACCT | 0.123 E-score |
| AGAAGGGG | 0.223 E-score |
| CTAAGCAA | -0.351 E-score |
| ATATTTAC | 0.104 E-score |
| GTATAGCA | 0.0673 E-score |
| CAACATGG | -0.0245 E-score |
| TTGTAAAA | -0.135 E-score |
| AAAAATAG | -0.165 E-score |
| ACTTCTAA | -0.247 E-score |
| ACCCGGGT | 0.377 E-score |
| AGACTACA | 0.0902 E-score |

| Sequence | binding signal |
| --- | --- |
| AACATCAA | -0.204 E-score |
| GCCAGTCC | -0.174 E-score |
| CTTCGGGC | 0.0814 E-score |
| GCGCGAAA | 0.0135 E-score |
| TCCTGCAA | 0.0571 E-score |
| GAATAGCC | -0.24 E-score |
| ACACGAGT | 0.401 E-score |
| CGCGCCGA | -0.0159 E-score |
| ACACGATC | 0.385 E-score |
| CGAGCCAA | -0.0626 E-score |
| GATTCTTA | -0.237 E-score |
| CGAGTCAC | 0.196 E-score |
| GAAAATCA | -0.0977 E-score |
| ACACGTTG | 0.331 E-score |
| AGCAAGTG | 0.0833 E-score |
| AACTAATC | -0.00173 E-score |
| ATAGGGTC | 0.136 E-score |
| CCGCTTCA | 0.0414 E-score |
| ATCTGAAA | -0.128 E-score |
| ACATTGAG | -0.0886 E-score |
| CTTATCAC | 0.0462 E-score |
| CCCCTTCC | 0.135 E-score |
| CTACTAAG | 0.0576 E-score |
| CCACTTAC | 0.0867 E-score |
| CAACTAGG | 0.00268 E-score |

| Sequence | binding signal |
| --- | --- |
| CCCCAGCA | 0.0306 E-score |
| TAACGAGA | -0.221 E-score |
| ACCTTTTG | 0.00653 E-score |
| GAATCTGC | -0.0906 E-score |
| CTCCAAAA | -0.0483 E-score |
| AACCGTCA | -0.0735 E-score |
| TCCTGAAA | -0.159 E-score |
| CGAGTACA | 0.28 E-score |
| ACTTCTCA | -0.216 E-score |
| ACGGATGG | -0.0241 E-score |
| CAGGTGAC | 0.118 E-score |
| TGGCGGAA | -0.129 E-score |
| CCTCACTA | -0.094 E-score |
| CCCAACCC | 0.128 E-score |
| TCCGGTCA | 0.11 E-score |
| AAAATAGA | -0.0638 E-score |
| AGACGAGC | -0.199 E-score |
| TCTGAGCA | -0.266 E-score |
| ATTCAGGG | 0.0674 E-score |
| AGACCACT | -0.179 E-score |
| AAAAGATT | -0.195 E-score |
| AGGTAACC | 0.063 E-score |
| AGCTCTAC | 0.00291 E-score |
| ACAATTTC | -0.0215 E-score |
| TGCCTACA | 0.00911 E-score |

| Sequence | binding signal |
| --- | --- |
| GATGTGGA | 0.0831 E-score |
| CCGTCTCA | -0.0294 E-score |
| ACGTAAGC | -0.127 E-score |
| TGAGGGCA | -0.135 E-score |
| CGTGTCAA | 0.409 E-score |
| AGCTGATC | -0.0146 E-score |
| CGTTTGTC | 0.0904 E-score |
| ATATCGCG | -0.189 E-score |
| GGCCAGCC | -0.202 E-score |
| ACTGGCGC | 0.00477 E-score |
| CTTAGCTA | -0.332 E-score |
| ACAGCCGG | -0.0475 E-score |
| CAATAAAA | -0.0532 E-score |
| ACTGCCAT | -0.213 E-score |
| ACTCTGCA | 0.101 E-score |
| GTTCGGGA | 0.15 E-score |
| AGGATGCG | -0.236 E-score |
| CGGTCTCC | 0.0699 E-score |
| AAACACCA | 0.454 E-score |
| ACGTTTGA | -0.0774 E-score |
| CGGGCTGA | -0.155 E-score |
| GTCTTCAC | -0.0354 E-score |
| CCCAGACA | 0.16 E-score |
| ATTTGATA | -0.132 E-score |
| AGGTAATA | -0.0574 E-score |

| Sequence | binding signal |
| --- | --- |
| CCCGACGG | 0.0821 E-score |
| GATTGACA | 0.0651 E-score |
| AAGCAAAC | -0.187 E-score |
| TACGATAA | -0.074 E-score |
| ACCGCCGC | 0.0147 E-score |
| AACCCACC | 0.194 E-score |
| AGGGGCAG | -0.0321 E-score |
| GGCGGAAC | -0.0827 E-score |
| CCGGATAC | 0.262 E-score |
| GCGAAGGA | -0.00445 E-score |
| CCTTTGAG | 0.21 E-score |
| CGCATAAG | -0.216 E-score |
| ATAAGGCA | -0.107 E-score |
| AGTAGACG | -0.0562 E-score |
| CGTTAGTC | 0.0541 E-score |
| CTAAAAAC | -0.184 E-score |
| GTGCCACA | 0.0784 E-score |
| CATCTAAA | -0.204 E-score |
| GACGGTAA | -0.0789 E-score |
| TAATGTAA | 0.0321 E-score |
| CGTTACGC | -0.145 E-score |
| GTTCAAAC | 0.0727 E-score |
| ATTTGCTA | -0.11 E-score |
| AATTAAAA | -0.144 E-score |
| ATTATGGG | 0.0818 E-score |

| Sequence | binding signal |
| --- | --- |
| CACGCACC | 0.344 E-score |
| GCATGTTA | -0.205 E-score |
| AGCGTTAT | 0.108 E-score |
| GCCGTATA | -0.0667 E-score |
| CCACATGA | -0.163 E-score |
| TTGTACAA | -0.106 E-score |
| CGGTACAC | 0.435 E-score |
| GCGTAGCA | -0.0833 E-score |
| TGCCTCAA | 0.0352 E-score |
| CACATCAC | -0.0442 E-score |
| AGTCTGGA | -0.0731 E-score |
| CGCAACTA | -0.136 E-score |
| CATCCTAA | -0.298 E-score |
| ACGCTGCA | 0.00161 E-score |
| AACCTTAA | -0.169 E-score |
| ACGAGAGG | -0.152 E-score |
| TCATCCAA | 0.068 E-score |
| GCGCGGGA | 0.122 E-score |
| TCCAGTCA | -0.114 E-score |
| TCGTCAGA | -0.016 E-score |
| TGACGGCA | -0.248 E-score |
| GATTACAC | 0.451 E-score |
